Reference: PubChem BioAssay AID463173 (ICCB-Longwood Screening Facility, Harvard Medical School, 2010)
Among all 52,000 compounds or so, about 4,300 (8.3%) were called active. No stated cut-off is given here; in the data, active means survival mostly below about 52% (no sharp cut-off); inactive means mostly above about 56%. The list shows a part of the results.

The compounds below were run on DeltatarO mutant (assay: growth inhibition of S. aureus wild type versus tarO mutant, primary screen, teichoic acid synthesis inhibitors, RN4220, OD600 (AID 463173)). Details: OD600, 18 h, stronger effect = lower value, screened at 18.75 µg/mL (by protocol).

Compound | survival
Cc1ccc2c(CN3CCN(c4ccc(Cl)cc4)CC3)cc(=O)oc2c1 | inactive: 76%
Cc1ccc(CNC(=O)CCCCCn2c(=O)c3sccc3n(CC(=O)C(C)(C)C)c2=O)cc1 | inactive: 59%
Cc1ccccc1-n1c(SCC(=O)c2ccccc2)nnc1-c1ccc(F)cc1 | inactive: 107%
Cc1ccc(NC(=O)NC(C)c2c(-n3cccc3)sc(C)c2C)c(C)c1 (stereo not drawn) | inactive: 93%
Cc1ccc(SCC(=O)Nc2ccc(O)c(-c3nc4cc(C)ccc4o3)c2)cc1 | inactive: 64%
COc1cc(OC)cc(C(=O)Nc2cc(NC(=O)c3ccco3)ccc2OC)c1 | inactive: 83%
COc1ccc(NC(=O)c2ccco2)cc1NC(=O)c1cccc(C)c1OC | active: 37%
CCC(c1nnnn1CCc1ccccc1)N(Cc1ccco1)Cc1cc2cc(C)ccc2[nH]c1=O (stereo not drawn) | inactive: 62%
COc1ccc(Nc2ncc(C(=O)Nc3cccc(OC)c3)c3ccccc23)cc1 | inactive: 106%
Cc1ccc(Cl)cc1N(C)C(=O)c1sc2nc3n(c(=O)c2c1C)CCCC3 | inactive: 62%
O=C1NC(c2ccco2)Nc2ccccc21 (stereo not drawn) | inactive: 85%
CCOc1cc(CNC(=O)CSc2n[nH]c(-c3ccccc3)n2)cc(OCC)c1OCC | inactive: 119%
Cc1ccc(NC(=O)CSc2nc(=O)n(Cc3ccncc3)c3c2CCC3)cc1Cl | inactive: 80%
COc1ccccc1N1CCN(S(=O)(=O)c2ccc(-c3coc(C)n3)cc2)CC1 | inactive: 71%
Cc1ccc(Cn2c(C3CC3)nc3ccc(N)cc3c2=O)cc1 | inactive: 100%
CCc1ccccc1NC(=O)CSc1nc2ccccc2n1CC(=O)N(C)C | inactive: 96%
Cc1c2cnn(-c3ccccc3)c(=O)c2c(C)n1CC(=O)Nc1ccccc1Br | inactive: 87%
c1ccc2[nH]c(CN3CCCCC3)nc2c1 | inactive: 59%
Cc1ccc(N2CCN(C(=O)c3cn(C)c4ccc(S(=O)(=O)N5CCC(C)CC5)cc4c3=O)CC2C)cc1 (stereo not drawn) | inactive: 105%
O=C(C1CCCCC1)N(Cc1cccnc1)c1nc2ccc(Cl)cc2s1 | inactive: 84%

Compound | survival
CCN(C(=O)CSc1nc(-c2ccc(C(C)C)cc2)no1)c1ccccc1 | inactive: 84%
O=C(Nc1nnc(S(=O)(=O)N2CCCc3ccccc32)s1)c1ccc(Cl)cc1 | active: 15%
COc1ccc(NC(=O)Cn2c(=O)n(Cc3ccco3)c(=O)c3sc4ccccc4c32)cc1OC | inactive: 79%
CC(=O)c1ccc(NC(=O)c2cnc(N3CCCC3)nc2C)cc1 | inactive: 78%
CCOc1cc(C#N)c(NC(=O)c2ccc(OC)c(S(=O)(=O)N3CCCCC3)c2)cc1OCC | inactive: 59%
O=C(Cn1c(=O)n(Cc2ccco2)c(=O)c2ccccc21)Nc1cccc(F)c1 | inactive: 96%
Cc1ccc(-n2c(-c3ccc(Br)cc3)nc3c(cnn3-c3ccccc3)c2=O)cc1 | active: 39%
CCc1ccccc1NC(=O)Cn1c(=O)n(-c2ccccc2)c(=O)c2oc3ccccc3c21 | inactive: 63%
CC(C)(C)c1ccc(C(=O)N2CCC(C(=O)O)CC2)cc1 | inactive: 68%
COc1ccc(NC(=O)CSc2nncn3c2cc2occc23)c(OC)c1 | inactive: 69%
NC(=O)c1ccccc1NC(=O)COCC(=O)O | inactive: 55%
COc1ccc(-n2nnc(-c3nc(-c4ccc5c(c4)OCO5)no3)c2C)cc1Cl | inactive: 91%
Cn1c(CCc2nc3ccccc3[nH]2)nnc1SCC#N | inactive: 82%
Cc1nn(-c2ccccc2)c2sc(C(=O)N(Cc3ccco3)C(C)C(=O)NC3CCCCC3)cc12 (stereo not drawn) | active: 60%
Cc1ccccc1-c1nc(CS(=O)(=O)CC(=O)NCCCN2CCN(C)CC2)c(C)o1 | inactive: 77%
CCn1nnnc1SCC(=O)Nc1ccccc1 | inactive: 90%
COc1ccc(C(=O)NCC(=O)OCc2cc(=O)n3nc(C4CCCCC4)sc3n2)cc1 | inactive: 90%
CCOC(=O)c1c(C)oc2nc(C)nc(NCCc3ccc(OCC)cc3)c12 | inactive: 75%
CC1=C(C(=O)NCc2cccc(Cl)c2)C2(CCCCCC2)OC1=O | inactive: 95%
CC(=O)Nc1ccc(S(=O)(=O)N2CCC(n3c(C)nc4cccnc43)CC2)cc1 | inactive: 67%

Compound | survival
CCC(C)NC(=O)Cn1c(=O)n(-c2cc(OC)cc(OC)c2)c(=O)c2ccccc21 (stereo not drawn) | inactive: 89%
CCOC(=O)c1ccc(NC(=O)CCc2c(C)nc3cc(-c4ccc(OC)cc4OC)nn3c2C)cc1 | inactive: 62%
CCOCC(=O)Nc1nc2ccccc2s1 | inactive: 72%
CC(C)Oc1ccc(C(=O)N2CCC(c3nc4ccccc4s3)CC2)cc1 | inactive: 49%
Cc1ccc(SCCNC(=O)CN(c2cccc(C)c2C)S(C)(=O)=O)cc1 | inactive: 57%
Cc1nc(N2CCOCC2)c2c(C(=O)N3CCN(c4cccc(C(F)(F)F)c4)CC3)c(C)oc2n1 | inactive: 105%
Cc1cccc2nc(-c3ccc(Cl)s3)c(Nc3ccc4c(c3)OCCO4)n12 | inactive: 93%
COc1ccc(NC(=O)C(Cc2ccccc2)NS(=O)(=O)c2ccc3c(c2)oc(=O)n3C)c(OC)c1 (stereo not drawn) | inactive: 149%
COc1cc(Cl)c(NC(=O)CN2C(=O)c3cccnc3Sc3ccccc32)c(OC)c1 | inactive: 61%
CC(C)c1ccc(NC(=O)Cn2nnc(C(=O)NCCc3ccccc3)c2N)cc1 | inactive: 115%
Cc1nn(-c2ccccc2)c(-n2cccc2)c1C(=O)NCCCN1CCN(c2ccccc2F)CC1 | inactive: 63%
Cc1ccc(OCC(=O)OCc2cc(=O)n3ccsc3n2)cc1C | inactive: 76%
COc1ccccc1N1CCN(c2ncc3c(n2)CCN(Cc2ccccc2C)C3)CC1 | inactive: 88%
Cc1nc2ccc(S(=O)(=O)NCC(=O)NCc3ccc(Cl)cc3)cc2s1 | inactive: 87%
COc1ccc(OC(=O)c2cc(-c3ccc4c(c3)OCCO4)on2)cc1 | inactive: 101%
Cc1ccc(C)c(NC(=O)CSc2cn(CC(=O)N3CCCCC3)c3ccccc23)c1 | inactive: 97%
CCOc1ccc(NC(=O)Cn2c(=O)nc(-c3ccccc3)c3ccccc32)cc1 | inactive: 85%
CCOc1ccc(CN(CCc2ccc3c(c2)OCO3)Cc2cc(OC)cc(OC)c2)cc1 | inactive: 58%
